# Measurements as given in the supplement of paper PMC3334620.
# In all, about 33,000 sequences were measured (“E-score (-0.5 to 0.5)”: median about -0.035, highest 2% from about 0.35 on). The list shows a part of the results.
# Target: T1, Pdr3 (UniProt P33200)
# T1 sequence: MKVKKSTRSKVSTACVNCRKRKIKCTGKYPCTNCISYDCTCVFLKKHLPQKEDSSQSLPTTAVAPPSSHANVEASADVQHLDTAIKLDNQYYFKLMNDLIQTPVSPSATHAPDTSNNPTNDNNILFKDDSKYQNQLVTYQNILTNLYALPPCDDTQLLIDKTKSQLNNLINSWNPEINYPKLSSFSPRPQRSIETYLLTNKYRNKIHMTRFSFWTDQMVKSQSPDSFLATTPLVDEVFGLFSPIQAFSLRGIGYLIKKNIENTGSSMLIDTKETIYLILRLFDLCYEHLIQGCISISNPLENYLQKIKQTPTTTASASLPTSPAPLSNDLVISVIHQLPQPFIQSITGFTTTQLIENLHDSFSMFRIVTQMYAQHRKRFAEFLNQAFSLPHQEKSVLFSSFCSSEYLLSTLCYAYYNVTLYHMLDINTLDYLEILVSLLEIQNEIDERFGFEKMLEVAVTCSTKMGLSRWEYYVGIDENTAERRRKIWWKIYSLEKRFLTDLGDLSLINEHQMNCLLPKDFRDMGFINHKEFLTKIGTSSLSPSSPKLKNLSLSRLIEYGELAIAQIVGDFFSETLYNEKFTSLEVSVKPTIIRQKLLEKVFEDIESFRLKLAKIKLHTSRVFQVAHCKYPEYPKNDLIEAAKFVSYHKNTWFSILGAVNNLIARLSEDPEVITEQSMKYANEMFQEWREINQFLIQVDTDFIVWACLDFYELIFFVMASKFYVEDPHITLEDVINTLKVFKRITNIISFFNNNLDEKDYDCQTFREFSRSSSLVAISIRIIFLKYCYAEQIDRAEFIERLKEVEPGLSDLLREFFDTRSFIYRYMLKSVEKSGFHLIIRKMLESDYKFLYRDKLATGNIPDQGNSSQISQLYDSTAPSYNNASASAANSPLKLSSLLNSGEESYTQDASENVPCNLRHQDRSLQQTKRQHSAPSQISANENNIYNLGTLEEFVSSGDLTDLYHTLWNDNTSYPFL
# Assay: PBM E-score (8-mer binding enrichment) (E-score (-0.5 to 0.5)); higher = stronger / more preferred TF binding; most listed sequences are background and not binding sites
# Settings: protein concentration: 200 nM; construct: GST-full length
# How it was run: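 Universal all-10-mer Agilent arrays, fresh or stripped once, were converted to double-stranded form by primer extension. GST-tagged yeast transcription factors from PURExpress in vitro transcription/translation, full-length or DNA-binding domain only, were applied at about 100-200 nM and detected with fluorescent anti-GST. After masliner normalisation, the Universal PBM Analysis Suite scored each ungapped eight-base word together with its reverse complement by E-score.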
row,Sequence,PBM E-score
1,CTAAGATA,-0.0473
2,CAGTTCGG,0.204
3,ATGTGTCG,-0.0408
4,CGTGAGCC,-0.184
5,GAGCCGGC,0.324
6,TCATGAAA,0.0318
7,AGTTTATG,-0.105
8,ATTCCCCG,0.28
9,CACTGCTG,-0.185
10,CATTTGAG,0.041
11,AATTTCAT,-0.0192
12,CGGGACCA,0.264
13,AAAAAGCG,0.102
14,ACCGACAA,-0.0101
15,GGGGCTCA,-0.117
16,CACTTACA,-0.0745
17,CCCTATCC,0.0847
18,AAAGAAAT,-0.0304
19,GCTGTCGA,0.0218
20,CAACAGTA,-0.12
21,AATATTCA,0.0722
22,AAGTCCCA,-0.137
23,CTGAGTGA,0.179
24,AGTAGATC,-0.0054
25,GAGTTCCC,0.163

row,Sequence,PBM E-score
1,AGAGTATA,-0.259
2,ATGAGCCG,-0.0142
3,ACCTTCTG,0.0416
4,AGAGGAAT,-0.259
5,CAGTTCTC,0.116
6,GATGCGTA,-0.169
7,CAAGCTTG,-0.0679
8,ATGCCCTG,-0.0979
9,CTATCTCA,0.0461
10,AGACTTTC,-0.174
11,AAACCCCC,-0.128
12,ACATAATC,0.0294
13,GTGTACTA,-0.162
14,GTCGGAAA,0.416
15,ATTCTACG,-0.0335
16,GCGCCGCC,0.299
17,GTAAGGTA,-0.132
18,ACAGCGCC,0.127
19,AAGACCTA,0.0684
20,CTCGGGTA,0.111
21,ACAGGTCA,-0.0795
22,CGCCCGTC,0.338
23,AATACGGG,-0.0463
24,GGTCTATA,-0.151
25,GTTGGGCA,-0.0124

row,Sequence,PBM E-score
1,CTTGCCAC,0.0154
2,AGTGCTTA,-0.154
3,AGTGGGCC,-0.241
4,GGTATTGA,0.0445
5,GCCTTTAC,-0.106
6,AATACACT,-0.127
7,AAGTAGGT,-0.15
8,GTGTAAAA,-0.167
9,CTCCTATC,-0.091
10,ATGCGGGA,0.293
11,ATTTTAAA,0.128
12,ACGTTTTA,-0.16
13,GACTATAC,-0.028
14,TACCTTAA,-0.0861
15,CAGTCAGA,-0.208
16,CCGGGGGC,0.235
17,ACAGAGCT,-0.292
18,CCGTATAA,0.223
19,AAATCGTT,-0.0434
20,CCCTGCCA,-0.017
21,CCAGGCAG,-0.129
22,ACAAATAG,0.0222
23,CACCCCAA,0.134
24,CCCGTTTA,0.151
25,GGACCTCC,0.103

row,Sequence,PBM E-score
1,ATTCTCCC,-0.00424
2,CAGTCTGA,-0.142
3,CGGTCGAA,0.0584
4,GCATTAGC,-0.0807
5,ATTAAGAA,0.00252
6,GGGTACCA,-0.22
7,ATCGCCTA,0.119
8,ACAGAGTA,-0.232
9,GAGAAATA,0.0887
10,AATAAGGC,-0.236
11,ATCCAGAA,-0.0661
12,CACTTCAC,-0.0435
13,AGCGCAAC,0.127
14,CGGATTGC,0.31
15,CTTTGAAC,-0.174
16,AAGTCAAG,-0.166
17,ATGTTCTG,-0.095
18,CCATTCCG,0.425
19,TCAAACAA,-0.11
20,GCGTGTTA,-0.33
21,CCACTTTA,-0.00202
22,AAACCGAA,-0.0124
23,CCAAATTA,-0.0438
24,CCCTAACG,-0.1
25,GTTGCTTA,-0.165

row,Sequence,PBM E-score
1,AACTTTGC,0.03
2,CGAGTTTA,0.0684
3,AACATCCG,0.341
4,AAAGTGCC,-0.142
5,CATTGTTC,0.133
6,GCTATTGA,-0.16
7,AATAGCCG,0.181
8,ACTTCATA,-0.0314
9,ACAGTGCA,0.00423
10,CACGGATA,0.373
11,ACACATAT,-0.0796
12,CACTAAGG,-0.0887
13,CTGAGGTA,0.0809
14,CAATGACC,-0.229
15,GCGTGATA,-0.0226
16,AATTATAC,0.102
17,AAAAGAGA,-0.184
18,ACGGTAGA,-0.0787
19,AGACAACG,0.164
20,CGGATGAG,0.304
21,TCAGCTGA,0.0232
22,ACTTTGCG,-0.0278
23,ATGAGCAG,-0.167
24,ACCATCCG,0.268
25,ATGCCGGG,0.245

row,Sequence,PBM E-score
1,CCTACACA,-0.00032
2,ACCCATCG,0.0706
3,CACAAGTA,0.0141
4,AACCGCTC,-0.0195
5,AGAGATCG,-0.137
6,AGAAGCAA,-0.0392
7,AGGATTGG,-0.151
8,CCCAACCG,0.00518
9,CCGAGGAA,0.271
10,ACGTGTCT,-0.103
11,AATCCACT,-0.089
12,GCCTCGCA,-0.0192
13,CATGTAAG,-0.196
14,CTAAGGCC,-0.141
15,GGAGAGTA,0.129
16,TCTTAGAA,-0.00746
17,CACTTATA,0.00883
18,ACTGCAAG,-0.164
19,CTGCCAGC,-0.152
20,CCAGAGTA,-0.0369
21,ACAATACG,0.0898
22,CGACTTCA,-0.0565
23,ACACACTG,-0.134
24,ACCATCGC,0.0596
25,ACTTTTGA,0.0691

row,Sequence,PBM E-score
1,AGTTCTAA,0.00941
2,ACCACGCA,-0.284
3,CATACGCC,-0.0998
4,AGTGACTC,-0.193
5,GAGTTGGC,0.115
6,CCGGAAGA,0.403
7,AGTAAGGC,-0.0279
8,AAACCATC,0.0527
9,AACCGACG,0.238
10,CCCCAATA,-0.21
11,GTTCGATA,0.0982
12,TAAGTCGA,-0.244
13,ATCCGGGC,0.386
14,AATCCCCG,0.296
15,AGGCCCCC,-0.151
16,CTGGATAA,0.0177
17,GCTTTTTA,-0.048
18,ACTTATGA,-0.114
19,ACGTGAGA,-0.254
20,AAAGGTCC,0.0345
21,AGAGAGTG,-0.209
22,ACCTTGGA,-0.0875
